Laboratory results as given in PubChem BioAssay AID624417 (National Center for Advancing Translational Sciences (NCATS), 2012).
Screen size: about 410,000 compounds; about 6,400 (1.6%) were called active. This list was built around the results that the source calls inconclusive (neither active nor inactive); the mix of calls is not that of the screen. The call rests on the fitted dose curve; in most records, active means well fitted inhibition curve with a large enough effect; inconclusive means small, poorly fitted or top-dose-only effect; inactive means no such curve, though single readings can be large or run the other way. Potencies of inconclusive entries are left out as doubtful fits.

Each compound was assayed against Glucagon-like peptide 1 receptor (Homo sapiens) (UniProt P43220) (assay: qHTS of GLP-1 Receptor Inverse Agonists (Inhibition Mode)). Conditions: HEK293 GLP-1R CRE-luciferase, luminescence, 24 h, GLP-1R form is constitutively active; activity change, negative = inhibition: at 38.3 µM (top of the series) unless noted.
Chain of UniProt P43220 (P43220 whole entry, looked up): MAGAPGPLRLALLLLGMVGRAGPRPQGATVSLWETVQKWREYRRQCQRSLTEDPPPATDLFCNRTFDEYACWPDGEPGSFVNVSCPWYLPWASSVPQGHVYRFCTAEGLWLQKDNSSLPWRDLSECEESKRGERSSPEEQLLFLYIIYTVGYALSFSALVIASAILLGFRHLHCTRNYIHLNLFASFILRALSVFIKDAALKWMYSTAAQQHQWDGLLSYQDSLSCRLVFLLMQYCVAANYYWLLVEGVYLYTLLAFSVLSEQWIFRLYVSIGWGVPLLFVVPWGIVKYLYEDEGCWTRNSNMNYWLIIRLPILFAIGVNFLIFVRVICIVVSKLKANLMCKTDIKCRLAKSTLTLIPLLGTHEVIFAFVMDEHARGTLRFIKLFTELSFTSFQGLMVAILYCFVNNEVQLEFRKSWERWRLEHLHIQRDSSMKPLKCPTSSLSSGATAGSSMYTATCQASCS
Summary of the method: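 Seeding at 200 cells/uL, 12 h culture, 24 hr compound treatment, then luciferase reagent and a luminescence read; cells are HEK293 stably expressing a constitutively active GLP-1R plus cAMP-responsive luciferase.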
Further: nearly all actives have a fitted effect of over 55% in size.
On the % scale 0 is the no-effect control and ±100 the full control effect; potency means the concentration at half of the fitted maximal effect; tags describe the fitted curve by direction and shape.

Row | SMILES | activity change, negative = inhibition | Potency
1 | O=C(N/N=C/c1c[nH]c2ccccc12)c1ccncc1 | inactive: 4.5% | –
2 | C/C(=N\NC(=S)NC1CCCCC1)c1ccccc1 | – | active: 5.62 µM
3 | Cc1cccc(N(C(=O)CNC(=O)c2ccco2)C(C(=O)NC2CCCCC2)c2cccnc2)c1 (stereo unspecified) | inactive: 3.09% | –
4 | COc1ccc(-c2cc(C#N)nc(Oc3ccc(Cl)cc3)n2)cc1 | inactive: -25.6% | –
5 | CN(C)CCOCCOc1ccc(Cl)cc1C(C)(C)C | – | active: 5.62 µM
6 | CC(=O)Nc1ccc2c(c1)Cc1ccc(Cl)cc1-2 | – | inconclusive [inhibitor, single point]
7 | CC(C)C[C@@H](COCc1ccc(Cl)cc1)N1CCN(C(=O)c2ccc(Cl)cc2Cl)CCC1=O | – | inconclusive [inhibitor, single point]
8 | Cc1nn(C(C)C(=O)NCc2ccco2)c(C)c1[N+](=O)[O-] (stereo unspecified) | inactive: 4.99% | –
9 | CCC1=NN(C(=O)c2cccc(Br)c2)C(O)(c2ccc(Br)cc2)C1 (stereo unspecified) | – | inconclusive [inhibitor, full curve, poor fit]
10 | O=C(COc1ccccc1Cl)N(Cc1ccco1)Cc1ccco1 | – | inconclusive [inhibitor, single point]
11 | CC(=NNC(=S)N1CC2CCC(CC2)C1)c1ccncn1 | – | inconclusive [inhibitor, full curve, poor fit]
12 | COc1ccccc1N(C)S(=O)(=O)c1ccc(C(=O)NCC(c2ccco2)N2CCCCC2)cc1 (stereo unspecified) | – | inconclusive [inhibitor, partial curve, poor fit]
13 | COc1ccc(CCNC(=S)c2ccccc2)cc1OC | – | inconclusive [inhibitor, single point]
14 | Cc1cccc(C2NC(c3cccc(C)c3)C([N+](=O)[O-])C(C)(C)C2[N+](=O)[O-])c1 (stereo unspecified) | – | inconclusive [inhibitor, full curve]
15 | Brc1ccccc1C1CC(c2ccccc2)=Nc2ccccc2N1 (stereo unspecified) | – | inconclusive [inhibitor, single point]
16 | O=C1N(Cc2cccc(Cl)c2)C[C@@H]2C[C@@H](c3ccsc3)N3CCC[C@@]123 | – | inconclusive [inhibitor, single point]
17 | CC(C)Cn1c(=O)c2c(nc3n2CCCN3CCc2ccccc2)n(C)c1=O | – | inconclusive [inhibitor, partial curve, poor fit]
18 | Cc1cc(C)nc(NS(=O)(=O)c2ccc(NC(=O)C(C)Oc3ccccc3F)cc2)n1 (stereo unspecified) | inactive: 3.43% | –
19 | CC(C)(C)c1cccc(Cn2nnc3ccccc32)c1O | – | inconclusive [inhibitor, single point]
20 | COc1ccc(N(CC(=O)N2CCc3ccccc3C2)S(=O)(=O)c2ccc(C)cc2)cc1Cl | – | inconclusive [inhibitor, single point]
21 | COc1cc(C)ccc1OCc1cc(C(=O)NC2CCOCC2)no1 | inactive: -5.85% | –
22 | NC(=O)CSc1nnc(-c2cccs2)n1Cc1ccco1 | inactive: -5.29% | –

Row | SMILES | activity change, negative = inhibition | Potency
23 | CCOC(=O)c1c(NC(=O)CN(C)C2CCN(C)CC2)sc(C(=O)Nc2ccccc2)c1C | – | inconclusive [inhibitor, partial curve, poor fit]
24 | O=C(CN1C(=O)c2ccccc2S1(=O)=O)c1ccc(Cl)cc1Cl | – | inconclusive [inhibitor, partial curve, poor fit]
25 | Cc1ccc(NS(=O)(=O)c2cccc(C(=O)N/N=C/c3c(C)nn(-c4ccccc4)c3N3CCCC3)c2)c(C)c1 | – | inconclusive [inhibitor, partial curve]
26 | Fc1ccc(C(CCNCc2ccccn2)c2ccc(Cl)cc2)cc1 (stereo unspecified) | inconclusive: -86.7% [inhibitor] | –
27 | O=C(NC1CCCCC1)C(c1ccco1)N(Cc1cccs1)C(=O)Cn1nnc2ccccc21 (stereo unspecified) | – | inconclusive [inhibitor, full curve, poor fit]
28 | c1ccc(OCCN2CCNCC2)cc1 | inactive: -25.2% | –
29 | CCc1nnc2c(N3CCN(c4cccc(C(F)(F)F)c4)CC3)nc3ccccc3n12 | inactive: 13.4% | –
30 | CCc1cc(-c2n[nH]c(C)c2-c2ccccc2Cl)c(O)cc1OC | – | inconclusive [inhibitor, full curve, poor fit]
31 | Cc1ccc(-c2noc(CNC(=O)COc3ccccc3C)n2)cc1 | – | inconclusive [inhibitor, single point]
32 | C[C@@H]1CC=C[C@H]2[C@H]1C(=O)N(Cc1ccccc1)[C@H]2c1ccc(C(F)(F)F)cc1 | – | inconclusive [inhibitor, partial curve, poor fit]
33 | Cc1oc(-c2ccc3c(c2)OCCO3)cc1C(=O)O | – | inconclusive [inhibitor, full curve, poor fit]
34 | CCc1[nH]nc2c1C(c1ccc(Br)s1)C(C#N)=C(N)O2 (stereo unspecified) | – | inconclusive [inhibitor, partial curve, poor fit]
35 | COc1cccc(/C=N\NC(=O)C2C(=O)NCC2c2ccccc2)c1O (stereo unspecified) | – | inconclusive [inhibitor, single point]
36 | Cc1ccccc1N1CCN(Cc2ccc([N+](=O)[O-])o2)CC1 | – | inconclusive [inhibitor, single point]
37 | C=CCn1c(=S)[nH]c2sc3c(c2c1=O)CCCC3 | inactive: -13% | –
38 | COc1ccc(CN2CCc3c([nH]c4ccccc34)C2)cc1Br | – | inconclusive [inhibitor, single point]
39 | COc1ccc2nc3oc(C(=O)N4CC(C)CC(C)C4)cc3cc2c1 (stereo unspecified) | – | inconclusive [inhibitor, partial curve]
40 | CN1CCOC(c2ccccc2)c2ccccc2C1 (stereo unspecified) | inactive: -13.9% | –
41 | COc1ccccc1C/C(N)=N/OC(=O)c1ccc2c(c1)OCO2 | – | inconclusive [inhibitor, single point]
42 | CC(C)(C)CC(=O)NC(=S)NCc1ccccc1 | – | inconclusive [inhibitor, full curve, poor fit]
43 | CCCOc1ccc(CNC(=O)c2oc3ccc4c(c3c2C)C(=O)CC(C)(CC)O4)cc1 (stereo unspecified) | – | inconclusive [inhibitor, single point]
44 | CC(CNC(=O)CCC(=O)N1CCOc2ccc(Cl)cc21)c1ccccc1 (stereo unspecified) | – | inconclusive [inhibitor, partial curve, poor fit]

Row | SMILES | activity change, negative = inhibition | Potency
45 | CCc1ccccc1NC(=S)N(CCCN(C)C)Cc1cc2cc3c(cc2[nH]c1=O)OCO3 | – | inconclusive [inhibitor, single point]
46 | Cc1cccc(OCCCCNCc2ccccc2)c1 | – | inconclusive [inhibitor, single point]
47 | O=C(NC1CCCCC1)C(c1ccccc1)N(Cc1ccc2c(c1)OCO2)C(=O)c1cnsn1 (stereo unspecified) | – | inconclusive [inhibitor, partial curve, poor fit]
48 | CC(NC(=O)CN(C)Cc1nc2ccccc2c(=O)[nH]1)c1ccccc1 (stereo unspecified) | inactive: 21.6% | –
49 | COc1cnn(-c2ccccc2)c(=O)c1SCc1ccc(Cl)cc1Cl | – | inconclusive [inhibitor, single point]
50 | N#CC1=C2SCN(C3CCCCC3)CN2C(=O)CC1c1ccc(Br)cc1 (stereo unspecified) | inactive: 13% | –
51 | Brc1ccc(-c2c(-c3ccsc3)sc3ccccc23)cn1 | – | inconclusive [inhibitor, single point]
52 | Cc1cccc(NC(=O)Cc2c(F)cccc2Cl)n1 | inactive: -18.7% | –
53 | CN(C)CCNC(=O)c1cccc(NS(=O)(=O)c2ccc(Cl)c(Cl)c2)c1 | – | inconclusive [inhibitor, partial curve]
54 | COc1ccccc1Oc1ccnc2cc(Cl)ccc12 | – | inconclusive [inhibitor, full curve, poor fit]
55 | O=C(CCn1cnc2ccccc2c1=O)Nc1cccc(Cl)c1Cl | inactive: -21.2% | –
56 | Brc1ccccc1-n1nnc(-c2cnc3ccccc3c2)n1 | – | inconclusive [inhibitor, single point]
57 | COc1ccc(NC(=O)C23CC4CC(CC(Cl)(C4)C2)C3)cc1S(=O)(=O)N1CCOCC1 | – | inconclusive [inhibitor, single point]
58 | COc1cc(OC)c2cc(C(=O)N/N=C/c3ccccc3O)[nH]c2c1 | – | inconclusive [inhibitor, single point]
59 | Brc1cc2c(cc1CSc1ncccn1)OCO2 | – | inconclusive [inhibitor, single point]
60 | O=C(N/N=C\c1ccc(-c2ccccc2[N+](=O)[O-])o1)C1COc2cc3ccccc3cc2O1 (stereo unspecified) | – | inconclusive [inhibitor, partial curve, poor fit]
61 | CCCCC(=O)N1CCN(c2nc3ccc(F)cc3s2)CC1 | – | inconclusive [inhibitor, single point]
62 | CCc1cccc(C)c1NC(=O)CO/N=C(\C)c1cc2ccccc2o1 | – | inconclusive [inhibitor, single point]
63 | COc1ccc(S(=O)(=O)N2CCCC2CNC(=O)C(=O)NCCc2ccccc2)cc1 (stereo unspecified) | – | inconclusive [inhibitor, partial curve]
64 | C=CC[C@@H](CC(=O)N[C@H](CO)Cc1ccccc1)C(=O)N[C@H](COC(=O)[C@@H](CC=C)Cc1ccc(F)cc1)Cc1ccccc1 | – | inconclusive [inhibitor, partial curve, poor fit]
65 | O=C(CN1CCN(C(=O)c2ccccc2F)CC1)Nc1ccc(Br)cc1 | – | inconclusive [inhibitor, partial curve, poor fit]
66 | COC(=O)[C@@]12CCCCN1[C@H](c1ccc(-c3ccccc3)cc1)[C@@H]1C(=O)N(C)C(=O)[C@@H]12 | – | inconclusive [inhibitor, full curve, poor fit]
